According to patent US11366114B2, “Genetically encoded fluorescent sensors for detecting ligand bias and intracellular signaling through cAMP pathways” (MONTANA MOLECULAR LLC, priority 2013, dated 2022):

Tested on: cAMP
Experiment: Fluorescence response of cAMP sensors to isoproterenol in HEK 293 cells co-expressing the beta adrenergic receptor
Format: cell-based, human
Conditions: in response to isoproternol
How it was run: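 HEK 293 or HEK 293T cells were transiently co-transfected with sensor construct and beta adrenergic receptor, then imaged 24-48 h later in DPBS at 25 °C. Green fluorescence change (488/530 nm in plate reader) was recorded after isoproterenol, DMSO, forskolin or IBMX addition, background-subtracted.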

Molecule | Relative Change in Fluorescence [%]
Library 2-1 D1: cAMP sensor; SEQID 21 in Table 1, SEQ ID NO: 22 in Table 3 (protein) MVAAHAAHSSSSAEWIACLDKRPLERSSEDVDIIFTRLKEVKAFEKFHPNLLHQICLCGYYENLEKGITLFRQGDIGTNWYAVLAGSLDVKVSETSSHQDAVTICTLGIGTAFGESILDNTPRHATIVTRESSELLRIEQKDFKALWEKYRQYMAGLLAPPYGVMETGSNNDRIPDKENTPLIEPHVPLRPANTITKVPSEKILRAGKILRNAILSRAPHMIRDRKYHLKTYRQCCVGTELVDWMMQQTPCVHSRTQAVGMWQVLLEDGVLNHVDQEHHFQDKYLFYRFLDDEHEDAPLPTEEEKKECDEELQDTMLLLSQMGPDAHMRMILRKPPGQRTVDDLEIIYEELLHIKALSHLSTTVKRELAGVLIFESHAKGGTVLFNQGEEGTSWYIILKGSVNVVIYGKGVVCTLHEGDDFGKLALVNDAPRAASIVLREDNCHFLRVDKEDFNRILRDVEANLENVYIKADKQKNGIKANFKIRHNIEDGGVQLAYHYQQNTPIGDGPVLLPDNHYLSVQSILSKDPNEKRDHMVLLEFVTAAGITLGMDELYKGGTGGSMVSKGEELFTGVVPIQVELDGDVNGHKFSVSGEGEGDATYGKLTLKFICTTGKLPVPWPTLVTTLTYGVQCFSRYPDHMKQHDFFKSAMPEGYIQERTIFFKDDGNYKTRAEVKFEGDTLVNRIELKGIDFKEDGNILGHKLEYNTRKEDFNRILRDVEANTVRLKEHDQDVLVLEKVPAGNRASNQGNSQPQQKYTVMSGTPEKILEHFLETIRLEATLNEATDSVLNDFIMMHCVFMPNTQLCPALVAHYHAQPSQGTEQEKMDYALNNKRRVIRLVLQWAAMYGDLLQEDDVSMAFLEEFYVSVSDDARMIAALKEQLPELEKIVKQISEDAKAPQKKHKVLLQQFNTGDERAQKRQPIRGSDEVLFKVYCMDPTYTTIRVPVATSVKEVISAVADKLGSGEGLIIVKMSSGGEKVVLKPNDVSVFMTLTINGRLFACPREQFDSLTPLPEQEGPTVGTVGTFELMSSKDLAYQMTIYDWELFNCVHELELIYHTFGRHNFKKTTANLDLFLRRFNEIQFWVVTEICLCSQLSKRVQLLKKFIKIAAHCKEYKNLNSFFAIVMGLSNVAVSRLALTWEKLPSKFKKFYAEFESLMDPSRNHRAYRLTVAKLEPPLIPFMPLLIKDMTFTHEGNKTFIDNLVNFEKMRMIANTARTVRYYRSQPFNPDAAQANKNHQDVRSYVRQLNVIDNQRTLSQMSHRLEPRRP | 33
Library 1 G2: cAMP sensor; SEQID 22 in Table 1, SEQ ID NO: 23 in Table 3 (protein) MVAAHAAHSSSSAEWIACLDKRPLERSSEDVDIIFTRLKEVKAFEKFHPNLLHQICLCGYYENLEKGITLFRQGDIGTNWYAVLAGSLDVKVSETSSHQDAVTICTLGIGTAFGESILDNTPRHATIVTRESSELLRIEQKDFKALWEKYRQYMAGLLAPPYGVMETGSNNDRIPDKENTPLIEPHVPLRPANTITKVPSEKILRAGKILRNAILSRAPHMIRDRKYHLKTYRQCCVGTELVDWMMQQTPCVHSRTQAVGMWQVLLEDGVLNHVDQEHHFQDKYLFYRFLDDEHEDAPLPTEEEKKECDEELQDTMLLLSQMGPDAHMRMILRKPPGQRTVDDLEIIYEELLHIKALSHLSTTVKRELAGVLIFESHAKGGTVLFNQGEEGTSWYIILKGSVNVVIYGKGVVCTLHEGDDFGKLALVNDAPRAASIVLREDNCHFLRVDKEDFNRILRDVLENVYIKADKQKNGIKANFKIRHNIEDGGVQLAYHYQQNTPIGDGPVLLPDNHYLSVQSILSKDPNEKRDHMVLLEFVTAAGITLGMDELYKGGTGGSMVSKGEELFTGVVPIQVELDGDVNGHKFSVSGEGEGDATYGKLTLKFICTTGKLPVPWPTLVTTLTYGVQCFSRYPDHMKQHDFFKSAMPEGYIQERTIFFKDDGNYKTRAEVKFEGDTLVNRIELKGIDFKEDGNILGHKLEYNTRTVRLKEHDQDVLVLEKVPAGNRASNQGNSQPQQKYTVMSGTPEKILEHFLETIRLEATLNEATDSVLNDFIMMHCVFMPNTQLCPALVAHYHAQPSQGTEQEKMDYALNNKRRVIRLVLQWAAMYGDLLQEDDVSMAFLEEFYVSVSDDARMIAALKEQLPELEKIVKQISEDAKAPQKKHKVLLQQFNTGDERAQKRQPIRGSDEVLFKVYCMDPTYTTIRVPVATSVKEVISAVADKLGSGEGLIIVKMSSGGEKVVLKPNDVSVFMTLTINGRLFACPREQFDSLTPLPEQEGPTVGTVGTFELMSSKDLAYQMTIYDWELFNCVHELELIYHTFGRHNFKKTTANLDLFLRRFNEIQFWVVTEICLCSQLSKRVQLLKKFIKIAAHCKEYKNLNSFFAIVMGLSNVAVSRLALTWEKLPSKFKKFYAEFESLMDPSRNHRAYRLTVAKLEPPLIPFMPLLIKDMTFTHEGNKTFIDNLVNFEKMRMIANTARTVRYYRSQPFNPDAAQANKNHQDVRSYVRQLNVIDNQRTLSQMSHRLEPRRP | 33
Library 1 A6: cAMP sensor; SEQID 23 in Table 1, SEQ ID NO: 24 in Table 3 (protein) MVAAHAAHSSSSAEWIACLDKRPLERSSEDVDIIFTRLKEVKAFEKFHPNLLHQICLCGYYENLEKGITLFRQGDIGTNWYAVLAGSLDVKVSETSSHQDAVTICTLGIGTAFGESILDNTPRHATIVTRESSELLRIEQKDFKALWEKYRQYMAGLLAPPYGVMETGSNNDRIPDKENTPLIEPHVPLRPANTITKVPSEKILRAGKILRNAILSRAPHMIRDRKYHLKTYRQCCVGTELVDWMMQQTPCVHSRTQAVGMWQVLLEDGVLNHVDQEHHFQDKYLFYRFLDDEHEDAPLPTEEEKKECDEELQDTMLLLSQMGPDAHMRMILRKPPGQRTVDDLEIIYEELLHIKALSHLSTTVKRELAGVLIFESHAKGGTVLFNQGEEGTSWYIILKGSVNVVIYGKGVVCTLHEGDDFGKLALVNDAPRAASIVLREDNCHFLRVDKEDFNRILRMSNVYIKADKQKNGIKANFKIRHNIEDGGVQLAYHYQQNTPIGDGPVLLPDNHYLSVQSILSKDPNEKRDHMVLLEFVTAAGITLGMDELYKGGTGGSMVSKGEELFTGVVPIQVELDGDVNGHKFSVSGEGEGDATYGKLTLKFICTTGKLPVPWPTLVTTLTYGVQCFSRYPDHMKQHDFFKSAMPEGYIQERTIFFKDDGNYKTRAEVKFEGDTLVNRIELKGIDFKEDGNILGHKLEYNVSDVEANTVRLKEHDQDVLVLEKVPAGNRASNQGNSQPQQKYTVMSGTPEKILEHFLETIRLEATLNEATDSVLNDFIMMHCVFMPNTQLCPALVAHYHAQPSQGTEQEKMDYALNNKRRVIRLVLQWAAMYGDLLQEDDVSMAFLEEFYVSVSDDARMIAALKEQLPELEKIVKQISEDAKAPQKKHKVLLQQFNTGDERAQKRQPIRGSDEVLFKVYCMDPTYTTIRVPVATSVKEVISAVADKLGSGEGLIIVKMSSGGEKVVLKPNDVSVFMTLTINGRLFACPREQFDSLTPLPEQEGPTVGTVGTFELMSSKDLAYQMTIYDWELFNCVHELELIYHTFGRHNFKKTTANLDLFLRRFNEIQFWVVTEICLCSQLSKRVQLLKKFIKIAAHCKEYKNLNSFFAIVMGLSNVAVSRLALTWEKLPSKFKKFYAEFESLMDPSRNHRAYRLTVAKLEPPLIPFMPLLIKDMTFTHEGNKTFIDNLVNFEKMRMIANTARTVRYYRSQPFNPDAAQANKNHQDVRSYVRQLNVIDNQRTLSQMSHRLEPRRP | −33
Library 6-2 F1: cAMP sensor; SEQID 24 in Table 1, SEQ ID NO: 25 in Table 3 (protein) MVAAHAAHSSSSAEWIACLDKRPLERSSEDVDIIFTRLKEVKAFEKFHPNLLHQICLCGYYENLEKGITLFRQGDIGTNWYAVLAGSLDVKVSETSSHQDAVTICTLGIGTAFGESILDNTPRHATIVTRESSELLRIEQKDFKALWEKYRQYMAGLLAPPYGVMETGSNNDRIPDKENTPLIEPHVPLRPANTITKVPSEKILRAGKILRNAILSRAPHMIRDRKYHLKTYRQCCVGTELVDWMMQQTPCVHSRTQAVGMWQVLLEDGVLNHVDQEHHFQDKYLFYRFLDDEHEDAPLPTEEEKKECDEELQDTMLLLSQMGPDAHMRMILRKPPGQRTVDDLEIIYEELLHIKALSHLSTTVKRELAGVLIFESHAKGGTVLFNQGEEGTSWYIILKGSVNVVIYGKGVVCTLHEGDDFGKLALVNDAPRAASIVLREDNCHFLRVDKEDFNRILRLENVYIKADKQKNGIKANFKIRHNIEDGGVQLAYHYQQNTPIGDGPVLLPDNHYLSVQSILSKDPNEKRDHMVLLEFVTAAGITLGMDELYKGGTGGSMVSKGEELFTGVVPIQVELDGDVNGHKFSVSGEGEGDATYGKLTLKFICTTGKLPVPWPTLVTTLTYGVQCFSRYPDHMKQHDFFKSAMPEGYIQERTIFFKDDGNYKTRAEVKFEGDTLVNRIELKGIDFKEDGNILGHKLEYNTRDVEANTVRLKEHDQDVLVLEKVPAGNRASNQGNSQPQQKYTVMSGTPEKILEHFLETIRLEATLNEATDSVLNDFIMMHCVFMPNTQLCPALVAHYHAQPSQGTEQEKMDYALNNKRRVIRLVLQWAAMYGDLLQEDDVSMAFLEEFYVSVSDDARMIAALKEQLPELEKIVKQISEDAKAPQKKHKVLLQQFNTGDERAQKRQPIRGSDEVLFKVYCMDPTYTTIRVPVATSVKEVISAVADKLGSGEGLIIVKMSSGGEKVVLKPNDVSVFMTLTINGRLFACPREQFDSLTPLPEQEGPTVGTVGTFELMSSKDLAYQMTIYDWELFNCVHELELIYHTFGRHNFKKTTANLDLFLRRFNEIQFWVVTEICLCSQLSKRVQLLKKFIKIAAHCKEYKNLNSFFAIVMGLSNVAVSRLALTWEKLPSKFKKFYAEFESLMDPSRNHRAYRLTVAKLEPPLIPFMPLLIKDMTFTHEGNKTFIDNLVNFEKMRMIANTARTVRYYRSQPFNPDAAQANKNHQDVRSYVRQLNVIDNQRTLSQMSHRLEPRRP | 30
